In ChEMBL document CHEMBL1201862, “PubChem BioAssay data set” (2004):
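These data come from cells grown in 96-well plates and exposed to compound for 48 hours at five concentrations. Here, GI50 denotes the concentration required for 50% inhibition of growth.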 Activity calls are given as the source filed them. Cut-off read from the data, not from the text of the source: active = GI50 up to about 1.1 µM and inactive = higher.

What follows are compounds tested on NCI-H322M (assay: NCI tumour cell line growth inhibition, 48 h).
In the case of `Fc1ccc(C(OCCN2CC3CCC(C2)N3CCCc2ccccc2)c2ccc(F)cc2)cc1`, the GI50 is reported as inactive: 10.3 µM. `COc1cc(/C=C(\C)c2ccc3c(c2)OCO3)cc(OC)c1OC` was tested, and the GI50 was inactive: 94.8 µM. With `COc1ccc2cc(C(=O)CCC(=O)O)ccc2c1` the GI50 was inactive: > 100 µM. With `C=CC(=O)N1C/C(=C\c2ccc([N+](=O)[O-])cc2)C(=O)/C(=C/c2ccc([N+](=O)[O-])cc2)C1` the GI50 was active: 0.794 µM. With `O=C1Nc2ccccc2/C1=N/NC(=S)Nc1cccc(Cl)c1` the GI50 was inactive: 14.9 µM. For `NC(=S)N/N=C/c1c[nH]c2ccccc12`, the GI50 was inactive: > 100 µM. For `O=C1/C(=C/c2ccc(Oc3ccccc3)cc2)N=C(c2ccccc2)N1c1ccc(S(=O)(=O)Nc2nccs2)cc1`, the GI50 was inactive: 29.4 µM. `Cc1ccc([N+](=O)[O-])cc1NC(=O)C(=O)Cc1cc(=O)oc2cc(O)ccc12` was tested, and the GI50 was inactive: > 100 µM. `CCSc1c2cc(OC)ccc2nc2ccc(OC)cc12` was tested, and the GI50 was inactive: 19.1 µM. `CCC1OC(=O)CC(O)C(C)C(OC2OC(C)C(O)C(N(C)C)C2O)C(CC=O)CC(C)C(=O)/C=C/C2(C)OC2C1C` (stereo not given) was tested, and the GI50 was inactive: 22 µM. `COC(=O)c1c2c(cc3c1CC1(C3)Cc3cc4c(c(C(=O)OC)c3C1)CCCC4)CCCC2` was tested, and the GI50 was inactive: > 100 µM. In the case of `COc1ccccc1N/C(SCc1ccccc1)=C(/C(Cl)=C(Cl)Cl)[N+](=O)[O-]`, the GI50 is reported as inactive: 27.9 µM. With `CC1C=C(OC(=O)c2ccccc2)C(=O)C(n2cc(F)c(=O)n(C(=O)c3ccccc3)c2=O)O1` (stereo not given) the GI50 was inactive: > 100 µM. In the case of `Cc1nn(-c2ccccc2)c(C)c1/C=N/N=C1\SCC(=O)N1c1ccccc1`, the GI50 is reported as inactive: 29.5 µM. For `CCc1cccc(C)c1NC(=O)CC1C(=O)Nc2ccccc2S1(=O)=O` (stereo not given), the GI50 was inactive: 19.1 µM. `OCC1OC(O)C(/N=C\c2ccc3c(c2)OCO3)C(O)C1O` (stereo not given) was tested, and the GI50 was inactive: > 100 µM. For `C=CC[C@@]1(C(=O)OC)[C@H](Sc2ccccc2)C1(C)C`, the GI50 was inactive: > 100 µM. `O=C1CCC2(c3ccccc3)OCC([C@@H](O)c3ccccc3)N12` (stereo not given in full) was tested, and the GI50 was inactive: > 100 µM. `CCOc1cccc2nc3cccc(C(=O)NCCN(C)C)c3nc12` was tested, and the GI50 was inactive: 1.14 µM. For `Cc1cccc2c(N)c3cccc(C(=O)NCC[N+](C)(C)Cc4sccc4[N+](=O)[O-])c3nc12`, the GI50 was inactive: 15.3 µM. In the case of `Cc1ccc(S(=O)(=O)N/N=C2/CC3CCC4CC2CC34)cc1` (stereo not given), the GI50 is reported as inactive: > 100 µM. For `C=CC1(c2ccc(Br)cc2)OCCCO1`, the GI50 was inactive: > 100 µM. For `COc1ccc(C[C@H](N)C(=O)N2C[C@@H](CO)C[C@@H](n3ccc(=O)[nH]c3=O)C2)cc1`, the GI50 was inactive: > 100 µM. `O=C(c1ccccc1)[C@H]1Nc2ccc(Cl)cc2[C@H]2CCC[C@@H]12` was tested, and the GI50 was inactive: 64 µM. In the case of `Cc1nc(-n2nc(-c3ccccc3)cc2-c2ccccc2)sc1C(/C=C/c1ccc([N+](=O)[O-])cc1)=N/NC(N)=S`, the GI50 is reported as inactive: 48.8 µM. In the case of `O=Cc1ccccc1OCCOc1cc(OCCOc2ccccc2C=O)c(OCCOc2ccccc2C=O)cc1OCCOc1ccccc1C=O`, the GI50 is reported as inactive: 89.7 µM. With `CCCCNC(=O)Cn1c2ccc(Br)cc2c2nc3ccccc3nc21` the GI50 was inactive: > 100 µM. In the case of `O=C(NC/C(Cl)=C/Cl)Nc1cccc2c1CCCC2`, the GI50 is reported as inactive: > 100 µM. In the case of `COc1cc(CNc2nc3cc(C(F)(F)F)ccc3nc2C)cc(OC)c1OC`, the GI50 is reported as inactive: 22.2 µM. In the case of `COc1cc(C2C(C(=O)Nc3cc(F)c(F)cc3F)=C(C)NC(C)=C2C(=O)Nc2cc(F)c(F)cc2F)ccc1O`, the GI50 is reported as inactive: 23.9 µM. In the case of `Nn1c(Nc2ccc(S(=O)(=O)Nc3ncccn3)cc2)nnc(/C=C/c2c(O)ccc3ccccc23)c1=O`, the GI50 is reported as inactive: 38.9 µM. For `CC(C)CCCC(C)[C@H]1CCC2[C@@H]3CCC4Cc5nc6c(nc5C[C@]4(C)C3CC[C@@]21C)CC1CC[C@@H]2C(CC[C@@]3(C)C2CC[C@@H]3O)[C@@]1(C)C6` (stereo not given in full), the GI50 was inactive: > 100 µM. With `CC(=O)CC1=C(OC(C)C)C2(OCCO2)C1O` (stereo not given) the GI50 was inactive: > 100 µM. In the case of `O=S1(=O)OCCOS(=O)(=O)C1(Br)Br`, the GI50 is reported as inactive: > 100 µM. With `CCN(CC)CCCNc1nnc(C)c2[nH]c3ccccc3c12` the GI50 was inactive: 8.38 µM. For `COc1ccc2c(c1)CC1Cc3ccccc3CCN1C2` (stereo not given), the GI50 was inactive: 41.6 µM. For `COc1cccc2c1C(=O)c1c(O)c3c(c(O)c1C2=O)C[C@@](O)(C(=O)CN1CCOCC1)C[C@@H]3OC1CC(N)C(O)C(C)O1` (stereo not given in full), the GI50 was inactive: 10.1 µM. `Cc1ccc(-c2n[nH]c(=O)n2/N=C\c2ccc([N+](=O)[O-])cc2)cc1` was tested, and the GI50 was inactive: > 100 µM. In the case of `CCn1c(=O)c2c(=O)[nH][nH]c2c2ccccc21`, the GI50 is reported as inactive: > 100 µM. For `CC(C)(C)OC(=O)Cn1ncn(NC(=O)Cc2ccccc2)c1=S`, the GI50 was inactive: > 10 µM. In the case of `C[C@@H]1OC(=O)C[C@H]2CC(=O)N(CCC3CN(S(=O)(=O)C(F)(F)F)c4ccccc43)C[C@@H]21` (stereo not given in full), the GI50 is reported as inactive: > 100 µM. For `CC(C)(C(=O)N(C(=O)N1CCN(c2ccccc2)CC1)S(=O)(=O)c1ccccc1)c1ccc(Cl)cc1`, the GI50 was inactive: 44 µM. With `C[N+]1(C)C2Cc3ccccc3C1Cc1ccccc12` the GI50 was inactive: > 100 µM. With `CC(C)NC(=O)OCc1c(COC(=O)NC(C)C)c(-c2ccc[n+](COC(=O)C(C)(C)C)c2)n2c1CCC2` the GI50 was inactive: > 100 µM. In the case of `C=C(Br)C/N=C/N(C)C`, the GI50 is reported as inactive: > 100 µM. `COc1cc(/C=N/N=C(\N)NO)ccc1O` was tested, and the GI50 was inactive: 52 µM. In the case of `CC(=O)N1C(c2[nH]c3ccccc3c2Cc2ccccc2)CCN1c1ccccc1` (stereo not given), the GI50 is reported as inactive: > 10 µM. In the case of `O/N=C1\CC2(N3CCOCC3)CCC1(c1ccccc1)CC2`, the GI50 is reported as inactive: > 100 µM. For `CC12Oc3ccc4ccccc4c3C1c1c(ccc3ccccc13)O2` (stereo not given), the GI50 was inactive: > 100 µM. In the case of `COC(=O)/C=C\C(C#N)(C#N)/N=C/c1cccc(OC)c1`, the GI50 is reported as inactive: 17 µM. With `COc1ccc(C[C@H]2NC[C@H](OC(C)=O)[C@H]2OC(C)=O)cc1` the GI50 was active: 0.135 µM. In the case of `COC(=O)C1Cc2c([nH]c3ccccc23)-c2[nH]c3ccccc3c2CC(NC(C)=O)C(=O)NCC(=O)N1` (stereo not given), the GI50 is reported as inactive: > 100 µM. `COc1cc2c(cc1OC)C1C(O)C(OC)C(Br)C3(Br)CCN(C2)C13` (stereo not given) was tested, and the GI50 was inactive: 75.7 µM. For `COc1c(C)c(C/C=C(\C)CCCCO[Si](C(C)C)(C(C)C)C(C)C)c(OC)c2ccccc12`, the GI50 was inactive: > 100 µM. With `CC(=O)c1cc([N+](=O)[O-])ccc1OCC(=O)O` the GI50 was inactive: > 100 µM. With `COC(=O)[C@H]1[C@H](OC(=O)[C@@H](OC)c2ccccc2)ON2CC[C@@H](OC(=O)c3ccccc3)[C@H]12` the GI50 was inactive: > 100 µM. `Clc1ccc(-c2c(C3=NCCCN3)nnn2-c2ccccc2)cc1` was tested, and the GI50 was inactive: > 100 µM. `CSc1nnc(COc2ccc(Cl)cc2)o1` was tested, and the GI50 was inactive: > 100 µM. `O=c1[nH]c(=O)n(COCc2ccccc2)cc1Nc1ccc(Br)cc1` was tested, and the GI50 was inactive: > 100 µM. `CCCCCCN(CCCCCC)C(=S)N/N=C(\C)c1ccccn1` was tested, and the GI50 was active: 0.836 µM. With `O=C1O[C@H]2C3C4CCC(C4[C@@H]2I)[C@H]13` (stereo not given in full) the GI50 was inactive: > 100 µM. `COc1cc(C(=O)N(C(=S)OCc2ccccn2)c2ccccc2)cc(OC)c1OC` was tested, and the GI50 was inactive: > 100 µM. With `O=C1COc2cc3c(cc2N1)SCC(=O)N3` the GI50 was inactive: > 100 µM. With `CC(C)OC(=O)NNc1c(Cl)cc(Cl)cc1Cl` the GI50 was inactive: 26.3 µM. For `OCC1c2ccccc2-n2nc(-c3ccccc3)c(O)c21` (stereo not given), the GI50 was inactive: 61.4 µM. In the case of `Cc1ccc(O)c(C(=O)/C=C/c2ccccc2)c1`, the GI50 is reported as inactive: > 100 µM. `CN1C=COC1N=C1CCCCC1` (stereo not given) was tested, and the GI50 was inactive: > 100 µM. `NC(=O)c1cccc(OCC(O)CO)c1` (stereo not given) was tested, and the GI50 was inactive: > 100 µM. With `Cc1ccc(NC(=O)CCc2nc(N)nc(N)c2-c2ccccc2)cc1C` the GI50 was inactive: > 100 µM. In the case of `Cc1ccc(NC(=O)CC(=O)N2N=C(N(c3ccccc3)c3ccccc3)CC2c2ccccc2)cc1` (stereo not given), the GI50 is reported as inactive: > 100 µM. With `CSc1nncc2[nH]cnc12` the GI50 was inactive: > 100 µM. With `Nc1ccc(C(=O)N/C(=C\C=C\c2ccco2)c2nc3c(O)nc(S)nc3[nH]2)cc1` the GI50 was inactive: > 100 µM. `c1ccc(CCCC2Sc3cccc4cccc(c34)S2)cc1` was tested, and the GI50 was inactive: > 100 µM. For `CN(C)CC1CCCC1=O` (stereo not given), the GI50 was inactive: 24.8 µM. With `CCOc1ccc(NC(=O)CC2SC(Nc3ccc(C)cc3C)=NC2=O)cc1` (stereo not given) the GI50 was inactive: 58.9 µM. For `COc1cc2c3c(c1OC)/C(=N/OS(=O)(=O)c1ccc(C)cc1)CC3N(S(=O)(=O)c1ccc(C)cc1)CC2` (stereo not given), the GI50 was inactive: > 100 µM. For `COc1ccc2c3c1OC1C34CCN(C)C(C2)C4=CC(I)C1(OC)OC` (stereo not given), the GI50 was inactive: 16.9 µM. In the case of `C/C(=C\Cc1ccc(F)cc1)CCCCCC/C(C)=C/Cc1ccc(F)cc1`, the GI50 is reported as inactive: 30.8 µM. For `COc1ccc2oc(OC)c(CC=C(C)C)c(=O)c2c1C`, the GI50 was inactive: > 100 µM. For `CCCCN(CCCC)CCCn1cnc2ncccc2c1=O`, the GI50 was inactive: > 100 µM. In the case of `COc1cc(C2c3cc4c(cc3[C@H](OCCN(C)C)[C@@H]3COC(=O)C23)OCO4)cc(OC)c1O` (stereo not given in full), the GI50 is reported as inactive: 1.97 µM. With `CSc1ccc2c(cc1=O)C(NC(=O)c1ccc(OC(C)=O)cc1)CCc1cc(O)c(O)c(O)c1-2` (stereo not given) the GI50 was inactive: 22.8 µM. For `COc1cc(C2c3cc4c(cc3[C@@H](Nc3cccc([N+](=O)[O-])c3)C3COC(=O)[C@H]23)OCO4)cc(OC)c1O` (stereo not given in full), the GI50 was inactive: 21.4 µM. In the case of `CN(C)c1ccc(/C=N/NC(=S)Nc2ccccc2)cc1`, the GI50 is reported as inactive: > 100 µM. With `Cc1csc(-c2cn(C)c3c2C(=O)C(=N)C=C3O)n1` the GI50 was inactive: 4.23 µM. For `O=C1/C(=C/c2ccc(O)c(O)c2)CC/C1=C\c1ccc(O)c(O)c1`, the GI50 was inactive: > 21.2 µM. In the case of `c1ccc2c(c1)OC(N1CCCC1)c1cnc(N3CCCC3)nc1-2` (stereo not given), the GI50 is reported as inactive: 62.1 µM. With `CCCC(=O)C1=C(O)C(Cc2c(O)c(C)c(O)c(C(=O)CCC)c2O)=C(O)C(C)(C)C1=O` the GI50 was inactive: 22.2 µM. `CC(=O)O[C@H]1C[C@]2(O)[C@@H]3CC[C@@H]4C[C@@H](O)CC[C@]4(C)[C@H]3CC[C@]2(C)[C@H]1C1=CC(=O)OC1` was tested, and the GI50 was active: 0.111 µM. `CC1=CC(=O)[C@@H](O)[C@]2(C)[C@H]3[C@@]4(O)OC[C@@]35[C@@H](C[C@@H]12)OC(=O)C(OC(=O)CC1=CCCC1)[C@H]5[C@@H](C)[C@H]4O` (stereo not given in full) was tested, and the GI50 was inactive: 1.77 µM.
